For 30 compounds, displacement results are on record in PubChem BioAssay AID1240 (Sanford-Burnham Center for Chemical Genomics, 2008).

Structures are written as SMILES. In all, about 50,000 compounds went through this assay and about 800 (1.6%) showed an effect of 50% or more. Some of the results follow.

This test addresses Bcl-2-like protein 10 (Homo sapiens) (UniProt Q9HD36). Description: TR3 peptide-Bcl-B binding displacers, biochemical primary FP assay, phenotype converters (AID 1240).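 Note: 0% = Bcl-B with tracer peptide and DMSO and 100% = tracer peptide lacking Bcl-B.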 Particulars: GST-Bcl-B / FITC-TR3 peptide fluorescence polarization; stronger effect = higher value; compound at 3.75 mg/L. On the technique in general: Polarisation of emitted light reports the rotation of a fluorescent probe.
UniProt Q9HD36, sequence (Q9HD36 whole entry, looked up): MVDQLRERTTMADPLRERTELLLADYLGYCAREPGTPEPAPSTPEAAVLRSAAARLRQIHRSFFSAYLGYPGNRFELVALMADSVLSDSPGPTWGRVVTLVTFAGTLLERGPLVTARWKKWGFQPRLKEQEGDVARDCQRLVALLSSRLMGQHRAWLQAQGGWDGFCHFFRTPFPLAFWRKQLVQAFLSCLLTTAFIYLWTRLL
Consider `O=C(/C=C/c1ccc(Cl)cc1)Nc1ccc(OC(F)(F)F)cc1`, for which the displacement was -5.2%.
For `COc1ccccc1NS(=O)(=O)c1ccc(C)c([N+](=O)[O-])c1` the value was -0.3%; for `COc1ccc(CNCc2cccc(Cl)c2)cc1OC`, -11.5%; for `CC(C)(C)c1ccc(S(=O)(=O)N/N=C/C=C/c2ccco2)cc1`, -9.2%.
Then `COc1ccc(OC)c(/C=C/C(=O)c2c(-c3ccccc3)c3cc(Br)ccc3[nH]c2=O)c1`, with 10.7%.
For `COc1ccc(C(N)=O)cc1NC(=O)c1ccc(Cl)c(Cl)c1`, the displacement was 3.9%.
For `O=C(NCc1ccccn1)c1ccccc1[N+](=O)[O-]` the value was -5.8%; for `CCOc1ccc(C(=O)Nc2ccccc2O)cc1Cl`, -9.2%.
For `C/C(=N\N1CCN(Cc2cccc3ccccc23)CC1)c1ccc(O)cc1` the value was -5.8%; for `CCOC(=O)C1=C(O)/C(=C/c2ccc(C)cc2)SC1=Nc1ccc(C)cc1`, -8.9%.
Regarding `CC(/C=C/c1ccc2ccccc2c1)=C\C(=O)O`, the displacement is 12.3%.
As for `Cc1ccccc1OCC(=O)N1CCN(c2ccc([N+](=O)[O-])cc2)CC1`, the displacement was -6.5%.
For `COc1ccc(Br)cc1/C=C/C(=O)c1ccc(F)cc1` the value was -10.1%.
For `Cc1cc(Cl)ccc1OCC(=O)N(CC(C)C)CC(C)C` the value was -7.2%; for `COc1ccc(CCC(=O)Nc2ccc(Cl)c([N+](=O)[O-])c2)cc1`, 7.5%; for `Cc1ccc(OCCNC(=O)Cc2cccc3ccccc23)cc1`, 9%.
With `Clc1cccc(Cl)c1SCCc1ccncc1`, the displacement was determined as 7.1%.
As for `CCOc1ccc(N/C(=N/S(=O)(=O)c2ccccc2)c2ccccc2)cc1`, the displacement came out at 14%.
As to `COc1ccc(Cl)cc1NC(=O)C1=C(C)NC(=S)NC1c1ccccc1Cl` (stereo not given), the displacement stood at 19%.
Then `CC(C)Cc1cc(C(=O)O)c2ccccc2n1`, with 12.6%.
Turning to `Cc1ccc(S(=O)(=O)Nc2ccc(N3CCCCC3)cc2)cc1[N+](=O)[O-]`, the displacement was found to be 12.8%.
For the compound `CN1CC(CO)O/C1=C(C#N)\C=C1\Nc2ccccc2C1=O` (stereo not given), the displacement was -112%.
`Cc1ccccc1/[N+]([O-])=C/c1cccs1`: the displacement was determined as 0.1%.
For `O=C(c1ccc2c(c1)C(=O)N(c1ccncc1)C2=O)c1ccc2c(c1)C(=O)N(c1ccncc1)C2=O`, the displacement was -2.9%.
For `C=CCn1c(SCC(=O)NCc2ccco2)nc2sc3c(c2c1=O)CCC3` the value was 4.1%; for `Cc1ccnc(NS(=O)(=O)c2ccc(NC(=O)c3cccc(Oc4ccccc4)c3)cc2)n1`, 12.3%; for `COc1ccc(C(=O)NC(C(Cl)(Cl)Cl)S(=O)(=O)c2ccc(C)cc2)cc1OC` (stereo not given), 10.7%.
For `O=C(/C=C/c1ccccc1)NC(=S)Nc1cccc(NC(=O)c2cccc(Cl)c2)c1` the value was 5.1%; for `O=C1/C(=C/c2cc([N+](=O)[O-])ccc2Cl)SC(=S)N1c1ccccc1`, 3.1%; for `O=C1CC(N2CCN(c3ccc([N+](=O)[O-])cc3)CC2)C(=O)N1c1cccc(Cl)c1` (stereo not given), -5.2%.
